# From the supplement of paper PMC8728848
# Some of the results follow.
# B1: PitA (Streptococcus oralis), G3F8D8 (protein)
# chain: MNIRFDFKKVQIIARRLVTLLAILFLCAPISLLNADSTTEPQTTLHKTITPISGQDDKYELSLDITSKLGTETQTDPLDVVLVADLSGSMQNQDVQSFDGRTISRIDALKNTLRGTNGRKGLIDTILSNSNNRLSMVGFGGKIDNKKVDQYWDGNKWRLFRPYWPYERMTKYYDGVSPWDDANTILGWSNNARAAKTAVYNMSIAGGNSIGTESGIGTGTNIGAGLTLANQLMGSARSNAKKVVILLSDGFANMVYDANGYTIYNYNNEDPNIETAPQWFWDRLNNNLNSLSYSLAPTLDGFYSIKFRYSNNVDSITSLQYYMRQHNASIPNEIFSANDEDQLRDSFKDITDKILPLGIHHVSIKDVLSKYVQLLPNGSSEFRVVKEKDGSSEILIENQVTFDTKTTSEGLVEVTAKFSPNYSLEDGARYVLKFTVTSSQEALDAIAGDKKLEAGDAEGSDVNKLYSNKGASVTYSYGIGNSQTKTKEYSDNPTFKPSDPLTVPVEVEWQGVTGARTVITADQPSNVELKLVQKNKNGGSDNQDYRKTNVNVSKNVSNETRNFEKVAKGYQYDLIAPDVPAFTKEIKNVGTESKPSFKVIYKQLPSLTIKKVLEAENNLNKEFRIKVKLTSPDSKPLNGTFGEITVVNGEAEIRVEKRKRWEGILSYLPRGTHYKVEEEAASTNGYHVTYENQEGDLNKDETSIVTNHKLPSLSVTKKVTGVFANLLKSFKITINIRDAQNSPLNGTYTATVNNKRTPLQFTNGRASIDLNKDQTIKIYGLPLDSHYTVEEESNSSRGYQVSYENQEGKLDGDKSATVTNNKNSVPETGVDFLSSTLMLGIILPLGGIFFTILLGYLVVHRRK
# Columns and labels:
# Experiment in all cases: glycan array binding signal (z-score within array); higher = stronger binding
# Settings in all cases: glycan notation: IUPAC condensed, linker removed
# [1] = target: Neu5Ac(a2-3)[GalNAc(b1-4)]Gal(b1-4)Glc
# How it was run: (§1)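 The binding signal is a Z-score computed within each array. Data were drawn from 3228 arrays in the Consortium for Functional Glycomics database, restricted to those with a known protein sequence. Scores were averaged over arrays of the same protein sequence at different concentrations or buffers, and over linkers, and negative values can be taken as non-binding.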
# [2] = target: Neu5Ac(a2-3)[GalNAc(b1-4)]Gal(b1-4)GlcNAc
# How it was run: as §1
# [3] = target: Neu5Ac(a2-3)[GalNAc(b1-4)]Gal(b1-4)GlcNAc(b1-3)GalNAc
# How it was run: as §1
# [4] = target: Neu5Ac(a2-3)[Neu5Ac(a2-6)]GalNAc
# How it was run: as §1
# Neu5Ac(a2-6)Gal = target: Neu5Ac(a2-6)Gal
# How it was run: as §1
# [5] = target: Neu5Ac(a2-6)Gal(b1-3)GlcNAc(b1-3)[Gal(b1-4)GlcNAc(b1-6)]Gal(b1-4)Glc
# How it was run: as §1
# Neu5Ac(a2-6)Gal(b1-4)Glc = target: Neu5Ac(a2-6)Gal(b1-4)Glc
# How it was run: as §1
# [6] = target: Neu5Ac(a2-6)Gal(b1-4)GlcNAc
# How it was run: as §1
# [7] = target: Neu5Ac(a2-6)Gal(b1-4)GlcNAc(b1-2)Man(a1-3)Man(b1-4)GlcNAc(b1-4)GlcNAc
# How it was run: as §1
# [8] = target: Neu5Ac(a2-6)Gal(b1-4)GlcNAc(b1-2)Man(a1-3)[Gal(b1-4)GlcNAc(b1-2)Man(a1-6)]Man(b1-4)GlcNAc(b1-4)GlcNAc
# How it was run: as §1
# [9] = target: Neu5Ac(a2-6)Gal(b1-4)GlcNAc(b1-2)Man(a1-3)[GlcNAc(b1-2)Man(a1-6)]Man(b1-4)GlcNAc(b1-4)GlcNAc
# How it was run: as §1
# [10] = target: Neu5Ac(a2-6)Gal(b1-4)GlcNAc(b1-2)Man(a1-3)[GlcNAc(b1-2)Man(b1-4)GlcNAc(b1-2)Man(a1-6)]Man(b1-4)GlcNAc(b1-4)GlcNAc
# How it was run: as §1
# [11] = target: Neu5Ac(a2-6)Gal(b1-4)GlcNAc(b1-2)Man(a1-3)[Man(a1-6)]Man(b1-4)GlcNAc(b1-4)GlcNAc
# How it was run: as §1
# [12] = target: Neu5Ac(a2-6)Gal(b1-4)GlcNAc(b1-2)Man(a1-3)[Neu5Ac(a2-6)Gal(b1-4)GlcNAc(b1-2)Man(a1-6)]Man(b1-4)GlcNAc(b1-4)GlcNAc
# How it was run: as §1
# [13] = target: Neu5Ac(a2-6)Gal(b1-4)GlcNAc(b1-2)Man(a1-3)[Neu5Ac(a2-6)Gal(b1-4)GlcNAc(b1-2)Man(a1-6)]Man(b1-4)GlcNAc(b1-4)[Fuc(a1-6)]GlcNAc
# How it was run: as §1
# [14] = target: Neu5Ac(a2-6)Gal(b1-4)GlcNAc(b1-2)Man(a1-6)Man(b1-4)GlcNAc(b1-4)GlcNAc
# How it was run: as §1
# [15] = target: Neu5Ac(a2-6)Gal(b1-4)GlcNAc(b1-2)Man(a1-6)[Gal(b1-4)GlcNAc(b1-2)Man(a1-3)]Man(b1-4)GlcNAc(b1-4)GlcNAc
# How it was run: as §1
# [16] = target: Neu5Ac(a2-6)Gal(b1-4)GlcNAc(b1-2)Man(a1-6)[GlcNAc(b1-2)Man(a1-3)]Man(b1-4)GlcNAc(b1-4)GlcNAc
# How it was run: as §1
# [17] = target: Neu5Ac(a2-6)Gal(b1-4)GlcNAc(b1-2)Man(a1-6)[Man(a1-3)]Man(b1-4)GlcNAc(b1-4)GlcNAc
# How it was run: as §1
# [18] = target: Neu5Ac(a2-6)Gal(b1-4)GlcNAc(b1-3)Gal(b1-3)GlcNAc
# How it was run: as §1
# [19] = target: Neu5Ac(a2-6)Gal(b1-4)GlcNAc(b1-3)Gal(b1-4)GlcNAc
# How it was run: as §1
# [20] = target: Neu5Ac(a2-6)Gal(b1-4)GlcNAc(b1-3)Gal(b1-4)GlcNAc(b1-3)Gal(b1-4)GlcNAc
# How it was run: as §1
# [21] = target: Neu5Ac(a2-6)Gal(b1-4)GlcNAc(b1-3)Gal(b1-4)[Fuc(a1-3)]GlcNAc(b1-3)Gal(b1-4)[Fuc(a1-3)]GlcNAc
# How it was run: as §1
# [22] = target: Neu5Ac(a2-6)Gal(b1-4)GlcNAc(b1-3)GalNAc
# How it was run: as §1
# [23] = target: Neu5Ac(a2-6)Gal(b1-4)GlcNAc(b1-3)[Neu5Ac(a2-6)Gal(b1-4)GlcNAc(b1-6)]GalNAc
# How it was run: as §1
# [24] = target: Neu5Ac(a2-6)Gal(b1-4)GlcNAc(b1-6)GalNAc
# How it was run: as §1
# [25] = target: Neu5Ac(a2-6)Gal(b1-4)GlcNAc(b1-6)[Gal(b1-3)GlcNAc(b1-3)]Gal(b1-4)Glc
# How it was run: as §1
# [26] = target: Neu5Ac(a2-6)Gal(b1-4)GlcNAc6S
# How it was run: as §1
# Neu5Ac(a2-6)GalNAc = target: Neu5Ac(a2-6)GalNAc
# How it was run: as §1
# [27] = target: Neu5Ac(a2-6)GalNAc(b1-4)GlcNAc
# How it was run: as §1
binder,measurement,setting,value
B1,glycan array binding signal (z-score),[1],-0.285
same,glycan array binding signal (z-score),[2],0.347
same,glycan array binding signal (z-score),[3],0.025
same,glycan array binding signal (z-score),[4],-0.488
same,glycan array binding signal (z-score),Neu5Ac(a2-6)Gal,-0.517
same,glycan array binding signal (z-score),[5],-0.298
same,glycan array binding signal (z-score),Neu5Ac(a2-6)Gal(b1-4)Glc,-0.522
same,glycan array binding signal (z-score),[6],-0.635
same,glycan array binding signal (z-score),[7],-0.247
same,glycan array binding signal (z-score),[8],-0.337
same,glycan array binding signal (z-score),[9],-0.428
same,glycan array binding signal (z-score),[10],-0.315
same,glycan array binding signal (z-score),[11],-0.483
same,glycan array binding signal (z-score),[12],-0.406
same,glycan array binding signal (z-score),[13],0.33
same,glycan array binding signal (z-score),[14],-0.428
same,glycan array binding signal (z-score),[15],-0.302
same,glycan array binding signal (z-score),[16],-0.431
same,glycan array binding signal (z-score),[17],0.537
same,glycan array binding signal (z-score),[18],0.421
same,glycan array binding signal (z-score),[19],-0.602
same,glycan array binding signal (z-score),[20],-0.155
same,glycan array binding signal (z-score),[21],0.046
same,glycan array binding signal (z-score),[22],0.626
same,glycan array binding signal (z-score),[23],-0.074
same,glycan array binding signal (z-score),[24],1.61
same,glycan array binding signal (z-score),[25],-0.053
same,glycan array binding signal (z-score),[26],-0.494
same,glycan array binding signal (z-score),Neu5Ac(a2-6)GalNAc,-0.617
same,glycan array binding signal (z-score),[27],-0.48
